# Source: publication PMC4336329 (PLoS ONE, 2015)
# Screen size: about 310,000 compounds; about 14,000 (4.5%) showed an effect of 50% or more. Effects have a minus sign here. The list shows a part of the results.
# Biological target: human ether-à-go-go-related gene (hERG) potassium channel (human, UniProt Q12809)
# Test: primary screen, population patch clamp on CHO cells stably expressing hERG
# 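Also: peak tail current of the secondary pulse compared with the same well before compound.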
# human ether-à-go-go-related gene (hERG) potassium channel, sequence (Q12809 whole entry, looked up): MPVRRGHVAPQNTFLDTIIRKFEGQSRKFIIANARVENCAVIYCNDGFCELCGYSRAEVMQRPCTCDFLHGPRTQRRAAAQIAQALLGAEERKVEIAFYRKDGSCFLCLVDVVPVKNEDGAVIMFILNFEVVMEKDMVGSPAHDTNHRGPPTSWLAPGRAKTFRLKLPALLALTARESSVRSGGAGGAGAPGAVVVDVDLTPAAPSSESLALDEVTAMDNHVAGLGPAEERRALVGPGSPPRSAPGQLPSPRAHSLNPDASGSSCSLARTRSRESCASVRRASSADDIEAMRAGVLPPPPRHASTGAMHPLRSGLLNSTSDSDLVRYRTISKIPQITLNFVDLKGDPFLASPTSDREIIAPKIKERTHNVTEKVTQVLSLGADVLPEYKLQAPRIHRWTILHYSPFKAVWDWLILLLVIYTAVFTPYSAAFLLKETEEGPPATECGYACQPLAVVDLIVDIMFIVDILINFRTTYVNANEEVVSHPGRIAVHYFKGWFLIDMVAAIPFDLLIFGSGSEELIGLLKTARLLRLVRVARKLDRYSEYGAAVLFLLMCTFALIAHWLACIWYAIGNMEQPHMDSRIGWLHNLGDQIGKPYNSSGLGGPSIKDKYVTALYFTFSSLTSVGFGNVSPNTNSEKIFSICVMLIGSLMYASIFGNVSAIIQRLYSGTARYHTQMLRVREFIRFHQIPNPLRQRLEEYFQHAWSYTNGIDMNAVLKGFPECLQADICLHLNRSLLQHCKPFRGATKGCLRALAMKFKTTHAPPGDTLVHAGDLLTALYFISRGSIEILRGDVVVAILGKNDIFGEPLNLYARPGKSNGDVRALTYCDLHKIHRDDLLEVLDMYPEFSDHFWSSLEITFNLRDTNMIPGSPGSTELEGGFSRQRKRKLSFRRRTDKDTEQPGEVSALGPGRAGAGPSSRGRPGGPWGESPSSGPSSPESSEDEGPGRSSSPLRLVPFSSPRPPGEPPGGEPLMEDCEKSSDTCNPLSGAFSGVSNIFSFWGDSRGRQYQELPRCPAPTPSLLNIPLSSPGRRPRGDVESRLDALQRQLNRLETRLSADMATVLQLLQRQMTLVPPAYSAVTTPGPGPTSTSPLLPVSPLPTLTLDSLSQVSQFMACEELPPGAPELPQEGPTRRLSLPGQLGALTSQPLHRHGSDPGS
row,Compound,"hERG current change (%, negative = inhibition) at 10uM [%]"
1,Cc1ccc(NC(=O)c2ccccc2-c2ccccc2C(=O)O)cc1,14.1
2,CCCn1c(=O)n(C)c(=O)c2c(SCc3cc(C(C)=O)ccc3OCC)nc(C3CC3)nc21,-1.54
3,Cc1ccc(/C=N/NC(=O)Nc2ccccc2)o1,-3.6
4,COc1ccc(N(C=O)C(C(=O)Nc2c(C)cccc2C)c2ccccc2)cc1 (centres unmarked),-3.39
5,CCCCNC(=O)CCCCC(=O)N/N=C/c1cccc(Cl)c1,-14.3
6,O=C(CCNc1ccc(F)cc1)c1cc2ccccc2o1,12.2
7,COC(=O)C(CCSC)NC(=O)Cn1ncc2c(=O)oc3ccc(C)cc3c21 (centres unmarked),-16.8
8,CCn1cc(S(=O)(=O)N2CCc3ccccc3C2)cn1,10
9,O=C(Nc1nonc1-c1ccc(F)cc1)c1ccco1,-4.51
10,ClC1=C(Cl)C(Cl)=C(Cl)C1=C/C=C/c1ccccc1,1.91
11,O=C(Nc1nc(-c2ccccc2)cs1)C1CCCCN1S(=O)(=O)c1ccccc1 (centres unmarked),-3.48
12,COc1ccc(C2CC(c3ccccc3)=NN2C(=O)COC(=O)C2CC2)cc1 (centres unmarked),-4.19
13,O=C(O)c1ccccc1OCc1nc2ccccc2s1,14.3
14,Cc1ccc(CNC(=O)C2CCN(S(=O)(=O)c3c(C)noc3/C=C/N(C)C)CC2)cc1,-24.2
15,CCOc1cc2c(cc1/C=C/c1noc(C)c1[N+](=O)[O-])OC(C)C2 (centres unmarked),22.9
16,C=CCN1C(=O)C(C)S/C1=N\S(=O)(=O)c1ccc(Cl)cc1 (centres unmarked),-1.04
17,Cc1ccsc1/C=N\NC(=O)CCc1c(C)n[nH]c1C,1.57
18,Cc1cc(C(=O)Nc2ccccc2C(=O)O)ccc1NC(=O)COc1cccc(C)c1C,4.47
19,Cc1nnc(SCCn2c(N3CCC(Cc4ccccc4)CC3)nc3c2c(=O)[nH]c(=O)n3C)s1,-23.6
20,COc1ccc(C(=O)O)cc1S(=O)(=O)N(C)C,16.6
21,COC(=O)c1ccc(CNC(=O)COC(=O)COc2ccc(OC)cc2)cc1,17.2
22,COc1cc(C)c(/C=C/C(C)=C/C=C/C(C)=C/C(=O)O)c(C)c1C,11.4

row,Compound,"hERG current change (%, negative = inhibition) at 10uM [%]"
1,O=C(COC(=O)c1c(Cl)cccc1Cl)Nc1cc(Cl)ccc1Oc1ccccc1,2.19
2,CC(C(=O)N1CCc2ccccc21)N1CCN(Cc2ccc(Cl)cc2)CC1 (centres unmarked),-67
3,Cc1[nH]nc(S(=O)CC(=O)O)c1[N+](=O)[O-] (centres unmarked),19
4,O=S(=O)(Nc1ccc2c(c1)OCO2)c1ccc(Cl)cc1F,-20.5
5,COC(=O)c1sccc1NC(=O)CSc1ccccc1NS(=O)(=O)c1ccc(F)cc1,-11.5
6,O=c1c[n+]([O-])c2ccccc2n1OCc1c(F)cccc1F,-4.87
7,O=C(CCc1ccc(S(=O)(=O)N2CCOCC2)cc1)N1CCc2ccccc2C1,-14.5
8,Cn1c(=O)c2ncn(CC(=O)N=Nc3c(O)[nH]c4ccccc34)c2n(C)c1=O,20.7
9,Cc1cccc(OCC(=O)NCC(=O)N/N=C/c2ccc(N(C)C)cc2)c1,0.0886
10,COc1ccc(S(=O)(=O)CCC(=O)Nc2ccc(OC)cc2OC)cc1,-7.54
11,COc1cc(/C=C/C(=O)NCc2nc3ccccc3[nH]2)cc(OC)c1OC,15
12,Cc1nn(CC(N)=O)c(=O)c2ccccc12,10.6
13,CCOC(=O)c1ccc(OCc2c(C)noc2C)cc1,-6.05
14,COc1ccccc1N1CCN(c2ncnc3nc[nH]c23)CC1,-9.85
15,CN(CC(=O)Nc1cccc(F)c1)C(=O)/C=C/c1ccc(Br)s1,13.2
16,COc1cccc(CNC(=O)C(C)n2ccc3cc(S(=O)(=O)N4CCCC4)ccc32)c1 (centres unmarked),0.662
17,CCCN1C(=O)C2(C(C(=O)c3ccc(C)o3)=C(O)C(=O)N2CCCN2CCOCC2)c2ccccc21 (centres unmarked),9.04
18,O=c1[nH]c(CSc2nnc(-c3cccnc3)n2C2CCCCC2)nc2ccccc12,0.0819
19,O=C1C=C(O)c2c(O)cc(O)c(O)c2C1=O,22.6
20,CC1CCCCN1c1nc2nonc2nc1N1CCCCC1C (centres unmarked),-15.8
21,O=C(N/C(=C\c1ccccc1)C(=O)N1CCOCC1)c1ccccc1Br,17.9
22,Cc1ccccc1Cn1nc(C)c(NC(=O)/C=C/c2cnn(C)c2C)c1C,-8.45
